From patent US20260116960A1 (SHANGHAI HONGCHENG BIOPHARMACEUTICAL, published 2026) come the findings set out here.

Assay [1] deals with T1, Biotinylated-hCTLA4 (Acro, Catalog No. CT4-H82E3) (human, UniProt P16410 36-161, biotinylated (site not stated)).
T1 construct: Bought protein
In words: sandwich ELISA: antibody titrated on coated human PD1-his, detected with biotinylated hCTLA4 and streptavidin-HRP.

For assay [2], the target named is T2, Biotinylated Human VEGF165 (Acro, Catalog No. VE5-H82Q0) (human, UniProt P15692-4 27-191, biotinylated (site not stated)).
T2 construct: Bought protein; also called Biotinylated-hVEGF165; Biotin-hVEGF165
T2 sequence (looked up): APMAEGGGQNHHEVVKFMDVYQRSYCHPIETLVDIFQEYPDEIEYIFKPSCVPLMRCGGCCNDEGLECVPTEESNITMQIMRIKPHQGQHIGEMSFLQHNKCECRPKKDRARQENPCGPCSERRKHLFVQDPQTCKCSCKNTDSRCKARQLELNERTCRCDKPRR
In words: flow cytometry: antibody titrated on activated human T cells, detected with 2 ug/mL biotinylated human VEGF165 and PE streptavidin. The procedure: After mixing, incubated at 4° C. for 60 minutes. […] The binding activity was fitted using a four-parameter model, and the EC₅₀ value of each antibody was calculated.

The target of assay [3] is T3, human PD-1 protein (Acro, Catalog No. PD1-H5221) (human, UniProt Q15116 partial chain).
T3 construct: Bought protein; also called human PD1-his; not shown: his tag
Briefly: ELISA, plate coated with human PD-1 protein. The procedure: ELISA was used to determine the activity of the trispecific antibodies binding to the PD-1 protein: 1 μg/mL human PD-1 protein (Acro, Catalog No.: PD1-H5221) was used to coat a high-adsorption 96-well ELISA plate and incubated at 4° C. overnight. On the next day, the plate was washed three times with PBST solution and blocked with 1% BSA-PBS solution at 37° C. for 1 hour. At the same time, 3-fold gradient dilutions of the antibody were prepared with 1% BSA-PBS solution, with a starting concentration of 10 nM. The antibodies of each gradient concentration were added to the blocked 96-well ELISA plate at 100 µL/well in triplicate and incubated at 37° C. for 1 hour. The plate was then washed three times with 0.05% PBST solution, and 100 μL/well of HRP-labeled secondary antibody (Sigma, Catalog No.: A0170) diluted at 1:5000 was added to the ELISA plate and incubated at 37° C. for 1 hour. The plate was washed three times with 0.05% PBST solution and developed with TMB. The absorbance of the 96-well ELISA plate at 450 nm was detected by an ELISA reader. The OD₄₅₀ value was fitted using a four-parameter model to calculate the EC₅₀ value of each antibody binding to PD-1.

In assay [4] the target is T2, Biotinylated Human VEGF165 (Acro, …). Briefly: flow cytometry: antibody titrated on CHOK1-hCTLA4 cells, then mixture of hPD1-mFc and biotin-hVEGF165; PE streptavidin signal. The method, then: CHOK1-hCTLA4 cells were obtained by trypsin digestion, washed twice with PBS containing 2% FBS (FACS buffer), and the cell density was adjusted to about 8×10⁵ cells/ml. 200 μL/well of the cells were added to a 96-well U-bottom plate. After centrifugation at 300 g for 5 minutes, the supernatant was discarded and 100 μL of antibody solution serially diluted with FACS buffer was added in triplicate (with starting concentration of 200 nM, 3-fold serial dilution, and the same volume of FACS buffer was used as a negative control). Mixed well and incubated at 4° C. for 60 min. After washing the plate three times with FACS buffer, a mixture consisting of 1 μg/mL hPD1-mFc (Acro, Catalog No.: PD1-H5255) and 1 μg/mL Biotin-hVEGF165 in a 1:1 volume ratio was added to each well at 100 μL/well to detect the simultaneously binding activity of the trispecific antibodies to VEGF and PD-1 after binding to cell surface CTLA-4. […] After washing the plate three times with FACS buffer, 100 μL/well of PBS solution was added to resuspend the cells, and the fluorescence signal was detected on a flow cytometer. The binding activity was fitted using a four-parameter model, and the EC₅₀ value of each antibody was calculated.

For assay [5], the target named is T4, human CTLA-4 on the cell surface (human, UniProt P16410 36-223).
T4 construct: whole, on cells; also called CHO-hCTLA-4 cells; CHOK1-hCTLA4 cells
Briefly: flow cytometry competition, CHO-hCTLA-4 cells, biotin-human CD80. The procedure:
CHO-hCTLA-4 cells were obtained by trypsin digestion, washed twice with PBS containing 2% FBS (FACS buffer), and resuspended in FACS buffer. 200 μL of the cells were added to a 96-well U-bottom plate, approximately 2×10⁵ cells/well. After centrifugation at 300 g for 5 minutes, the supernatant was discarded. […] After washing three times with FACS buffer, 100 μL/well of 1:800 diluted PE Streptavidin was added and incubated at 4° C. for 50 min. After washing three times with FACS buffer, 150 μL/well of PBS was added to resuspend the cells, and the fluorescence signal was detected on a flow cytometer (BECKMAN COULTER cytoFLEX). The four-parameter model was used to fit the binding activity and the IC₅₀ value of the blocking activity of each antibody was calculated.

The next assay deals with T5, human VEGFA 165 protein (human, UniProt P15692-4 27-191).
T5 sequence (looked up): T2 sequence (looked up)
Briefly: cell-based or functional assay.

Assay [6] concerns the target T6, human VEGF (ACRO, Catalog No. VE5-H4210) (human, UniProt P15692-4 27-191).
T6 construct: Analyte of the Octet assay; Bought protein
T6 sequence (looked up): T2 sequence (looked up)
Briefly: BLI (Octet RED96e), antibody on AHC sensor, antigen as analyte 6.25-100 nM, 1:1 model. The procedure: (§1) Octet® RED96e (ForteBio) was used to detect the affinity of trispecific antibodies to human PD-1, CTLA-4 and VEGFA. The specific method was as follows: the AHC Sensor was immersed in PBST (PBS containing 0.02% Tween) buffer for 10 minutes to activate the Sensor. The ligand (antibody to be tested) was diluted to 5 μg/mL with PBST buffer. […] The diluted ligand and analyte were added to the corresponding wells at 200 μL/well in triplicate. Program parameter settings: loading: 180 s, association: 180 s, dissociation: 600 s, regeneration: Gly-HCl pH 1.5, 30s, regeneration 3 times. […] Curve fit acceptance criteria: Full R\hat{ }2≥0.95.

In assay [7] the target is T7, human CTLA-4 protein (Acro, Catalog No. CT4-H52H9) (human, UniProt P16410 36-161).
T7 construct: Bought protein
The assay is described as above. The procedure:
as §1

T3 sequence (Q15116 25-167 limits assumed): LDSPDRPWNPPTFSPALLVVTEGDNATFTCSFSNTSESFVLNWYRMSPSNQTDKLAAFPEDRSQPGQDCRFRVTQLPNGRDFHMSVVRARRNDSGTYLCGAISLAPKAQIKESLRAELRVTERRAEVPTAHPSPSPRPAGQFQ

B1: HC010-F8 (trispecific antibody, human IgG4 S228P, kappa)
heavy: EVQLVESGGGLVQPGGSLRLSCAASGFTFSSYGMSWVRQAPGKCLEWVSTISGGGRDTYYPDSVKGRFTISRDNSKNTLYLQMNSLRAEDTAVYYCARQNGITWFADWGQGTLVTVSSGGGGSGGGGSGGGGSGGGGSDIQMTQSPSSLSASVGDRVTITCRASESVDNYGISFMNWYQQKPGKAPKLLIYAASNQGSGVPSRFSGSGSGTDFTLTISSLQPEDFATYYCQQSKEVPWTFGCGTKVEIKGGGGSGGGGSGGGGSGGGGSEVQLVESGGGLVQPGGSLRLSCAASGYTFTNYGMNWVRQAPGKGLEWVGWINTYTGEPTYAADFKRRFTFSLDTSKSTAYLQMNSLRAEDTAVYYCAKYPHYYGSSHWYFDVWGQGTLVTVSSASTKGPSVFPLAPCSRSTSESTAALGCLVKDYFPEPVTVSWNSGALTSGVHTFPAVLQSSGLYSLSSVVTVPSSSLGTKTYTCNVDHKPSNTKVDKRV[human IgG4 Fc with S228P (EU numbers) not spelt out]AGGGGSGGGGSGGGGSGGGGSEVQLLESGGGLVQPGGSLRLSCAASGSIFSINHMAWYRQAPGKQRELVAGVNSRGTTNYVDSVKGRFTISRDNSKNTLYLQMNSLRAEDTAVYYCRALGGAVAAWGQGTLVTVSS
light: DIQMTQSPSSLSASVGDRVTITCSASQDISNYLNWYQQKPGKAPKVLIYFTSSLHSGVPSRFSGSGSGTDFTLTISSLQPEDFATYYCQQYSTVPWTFGQGTKVEIKRTVAAPSVFIFPPSDEQLKSGTASVVCLLNNFYPREAKVQWKVDNALQSGNSQESVTEQDSKDSTYSLSSTLTLSKADYEKHKVYACEVTHQGLSSPVTKSFNRGEC
notes: light: bevacizumab VL-kappa; also called H010-F8
Consider B1, for which the EC50 in assay [1] stood at 0.105 nM; in assay [2] it was 0.44 nM; in assay [3], 0.08 nM; in assay [4], 1.44 nM. In assay [5], the IC50 is 13.7 nM. Moreover, in the assay with human VEGFA 165 protein, the “IC50, inhibition of VEGFA-induced HUVEC cell proliferation (CellTiter-Glo)” value was 0.86 nM. Moreover, the dissociation constant Kd in assay [6] stood at 5.47 nM; in assay [7], 4.97 nM.
